The campaign covered roughly 310,000 compounds. About 2,200 (0.71%) showed an effect of 50% or more. The effect is printed as a negative number. This is one part of the list.
target: human ether-à-go-go-related gene (hERG) potassium channel (human, UniProt Q12809); test: primary screen, population patch clamp on CHO cells stably expressing hERG
Sequence (Q12809 whole entry, looked up): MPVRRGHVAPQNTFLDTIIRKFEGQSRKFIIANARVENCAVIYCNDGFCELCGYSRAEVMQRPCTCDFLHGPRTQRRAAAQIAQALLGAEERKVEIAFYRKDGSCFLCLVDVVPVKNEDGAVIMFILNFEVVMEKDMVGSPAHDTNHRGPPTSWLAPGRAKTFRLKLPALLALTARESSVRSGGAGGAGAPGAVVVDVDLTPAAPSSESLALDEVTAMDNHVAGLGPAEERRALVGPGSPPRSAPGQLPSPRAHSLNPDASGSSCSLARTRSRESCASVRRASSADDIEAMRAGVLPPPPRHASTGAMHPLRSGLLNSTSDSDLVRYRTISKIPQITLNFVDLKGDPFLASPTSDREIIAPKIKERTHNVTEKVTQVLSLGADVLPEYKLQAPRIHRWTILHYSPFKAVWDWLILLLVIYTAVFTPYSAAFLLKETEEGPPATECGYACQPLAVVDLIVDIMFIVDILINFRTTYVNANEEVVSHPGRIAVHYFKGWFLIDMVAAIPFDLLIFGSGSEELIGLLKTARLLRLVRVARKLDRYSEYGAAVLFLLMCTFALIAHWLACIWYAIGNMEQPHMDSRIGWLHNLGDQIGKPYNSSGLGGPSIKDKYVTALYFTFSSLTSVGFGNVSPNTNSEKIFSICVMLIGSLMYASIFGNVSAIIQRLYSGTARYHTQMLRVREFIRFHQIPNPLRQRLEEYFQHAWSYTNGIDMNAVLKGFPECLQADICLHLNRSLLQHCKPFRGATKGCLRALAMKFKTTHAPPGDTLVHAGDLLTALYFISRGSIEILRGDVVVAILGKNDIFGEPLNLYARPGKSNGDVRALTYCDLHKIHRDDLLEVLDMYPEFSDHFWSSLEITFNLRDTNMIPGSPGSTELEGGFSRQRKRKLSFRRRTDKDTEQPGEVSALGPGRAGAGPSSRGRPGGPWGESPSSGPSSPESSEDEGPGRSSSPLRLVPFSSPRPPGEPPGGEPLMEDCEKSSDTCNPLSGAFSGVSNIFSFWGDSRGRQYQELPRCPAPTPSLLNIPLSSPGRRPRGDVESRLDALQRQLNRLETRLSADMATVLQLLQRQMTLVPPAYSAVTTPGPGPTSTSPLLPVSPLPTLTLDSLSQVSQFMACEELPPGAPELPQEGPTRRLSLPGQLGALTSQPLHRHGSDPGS

Row | Structure (SMILES) | hERG current change (%, negative = inhibition) at 1uM [%]
1 | COc1cc(SC)ccc1C(=O)NCCNC(=O)c1nonc1N | 6.87
2 | Cc1cc(N2CCCC2)nc2ccc(NC(=S)NCCCN3CCC(C)CC3)cc12 | 6.25
3 | CCOC(=O)C1CCN(Cc2cnc(Oc3ccc(N)cc3)s2)CC1 | 4.82
4 | COC(=O)C(NC(=O)CN1C(=O)c2ccccc2C1=O)c1ccc(O)c(OC)c1 (stereo not drawn) | 10.6
5 | O=C(NN(C(=O)c1ccccc1)c1ccccc1)c1ccccc1 | 3.47
6 | CCOc1cc([C@@H]2C[C@H]3CN(c4ccccc4)C(=O)[C@]34CCCN24)ccc1OC | 5.9
7 | COCCCNC(=S)N1CCCN(c2nc3c(C)c(C)ccc3cc2C#N)CC1 | 7.45
8 | CN(C)CCCNC(=O)c1cc(C(=O)c2ccccc2)c[nH]1 | 14.2
9 | Cc1ccc(S(=O)(=O)N/N=C/c2ccc(OC3CSC3)cc2)cc1 | 2.89
10 | O=C1CC(N2CCN(S(=O)(=O)c3ccc(Cl)cc3)CC2)C(=O)N1CCc1ccccc1 (stereo not drawn) | -19
11 | COc1cc(OC)cc(-c2nnc(SCC(=O)N3CCCC3)o2)c1 | 1.79
12 | O=C(Nc1ccccc1)NC1(C(=O)N2CCN(C(=O)c3ccco3)CC2)CCCCC1 | 13.2
13 | Cc1cc(SCC(=O)OC(C)C(=O)N(C)c2ccccc2)nc2ccccc12 (stereo not drawn) | 12.6
14 | CCC(=O)N1CCN(c2ccc(NC(=S)NC(=O)c3cc4ccccc4o3)cc2)CC1 | 2.94
15 | CC1(C)CC(NS(=O)(=O)c2cccc3ccccc23)CC(C)(C)N1 | 4.06
16 | CCc1cccc(C)c1NC(=O)CCCN1C(=O)NC(C)(C)C1=O | 2.8
17 | O=C(c1ccco1)N1CCCC(c2ccccc2)C1 (stereo not drawn) | 8.56
18 | OCCC1CN(Cc2cc3c(cc2Cl)OCO3)CCN1C1CCCC1 (stereo not drawn) | 1.98
19 | CCN=C1S/C(=C\c2ccc(OC)c(OCC)c2)C(=O)N1CC | 9.91
20 | Cc1c2n(c3ccccc13)CCC2=O | 12.5
21 | Cc1ccccc1NC(=O)CCNS(=O)(=O)c1ccc2[nH]c(=O)oc2c1 | 10.5
22 | Nc1nonc1-c1nc2ccccc2n1CC(=O)Nc1ccccc1 | 3.06
23 | CC(/C=N/NC(=O)CSc1nc(C)cc(C)n1)=C\c1ccccc1 | 9.6

Row | Structure (SMILES) | hERG current change (%, negative = inhibition) at 1uM [%]
24 | Cc1ccc(-c2cn3nc(C)c(C)nc3n2)cc1 | 12
25 | COc1ccc(CCNS(=O)(=O)c2cccc([N+](=O)[O-])c2)cc1OC | 10.4
26 | Cc1cc(-c2cc(C(=O)NCc3ccccc3)on2)nc(NC2CCCC2)n1 | 17.6
27 | COc1ccc(CCNS(=O)(=O)c2ccc3c(c2)NC(=O)CS3)cc1OC | 5.67
28 | Cc1ccc2c(c1)N(C(C)C(=O)NCc1ccccn1)C(=O)CO2 (stereo not drawn) | 3.85
29 | COc1cc(C(=S)N2CCOCC2)ccc1OC(=O)c1ccc([N+](=O)[O-])cc1[N+](=O)[O-] | 15.5
30 | CCOc1ccc(NC(=O)/C=C/c2ccc(OC)cc2)c([N+](=O)[O-])c1 | 7.64
31 | COc1ccc(OC)c(C(C)NC(=S)NC2CCCCC2)c1 (stereo not drawn) | 10.3
32 | CCOc1ccc(C(=O)Nc2c3c(nn2-c2cccc(C)c2C)CS(=O)C3)cc1 (stereo not drawn) | 3.13
33 | O=C(NN1C(=O)C2CC=C(Cl)CC2C1=O)c1ccncc1 (stereo not drawn) | 16.1
34 | O=C(CNC(=O)c1cccc(F)c1)OCC(=O)N1CCCc2ccccc21 | 8.08
35 | O=C(CSc1ccc(F)cc1)Nc1ccc2c(c1)C(=O)NC2=O | 1.52
36 | COc1ccc(CNC(=O)c2cncc(Br)c2)cc1 | 10.2
37 | COC(=O)c1ccc(C2Nc3ccccc3NC3=C2C(=O)CC(C)(C)C3)cc1 (stereo not drawn) | 10.2
38 | CCOc1cc(/C=N/n2cnnc2)cc(Br)c1O | -4.42
39 | NC(=O)CN1CCOCCOCCN(CC(N)=O)CCOCC1 | 2.84
40 | Cc1nc2ccc(NC(=O)c3ccccc3)cc2s1 | 5.88
41 | COc1cc(/C=N/NS(=O)(=O)c2ccc3ccccc3c2)ccc1OCc1ccc(C(=O)O)cc1 | 9.68
42 | O=C(NN1C(=O)c2ccccc2NC1c1ccco1)c1ccc(Br)cc1 (stereo not drawn) | -50.4
43 | CCOC(=O)C(C)/C(C)=N/NC(=O)c1cc2ccccc2cc1O (stereo not drawn) | 3.52
44 | COc1ccc(CCNC(=O)c2ccc(N3CCCC3=O)cc2)cc1 | -1.28
45 | CC(OC(=O)C1COc2ccccc2O1)C(=O)N(C)c1ccccc1 (stereo not drawn) | 5.21
46 | Cc1cccc(NC(=S)N2CCCCCC2)c1 | 11.7

Row | Structure (SMILES) | hERG current change (%, negative = inhibition) at 1uM [%]
47 | COc1cc(CCCN2C(=S)NC[C@@H]2Cc2ccccc2)cc(OC)c1OC | -5.82
48 | COc1ccc(NC(=S)NC2CC3CCC2C3)c(OC)c1 (stereo not drawn) | 14.3
49 | C=CCc1cc(OC)c2c(c1)OCO2 | 12.2
50 | O=C(NCCS(=O)(=O)c1ccc(Br)cc1)c1c(F)cccc1F | 12.9
51 | O=P(Oc1ccccc1)(Oc1ccccc1)c1ccccc1 | -2.75
52 | COc1ccc(N2CCN(C(=O)CSc3ncccc3-c3nc4ccccc4[nH]3)CC2)cc1 | -26.6
53 | COc1cc(NC(=O)CNC(c2ccccc2)c2ccccc2)cc(OC)c1OC | 11.8
54 | CC(=O)CCS(=O)(=O)c1ccc(Oc2ccc(S(=O)(=O)CCC(C)=O)cc2)cc1 | 9.57
55 | CC1=C(C#N)C(Nc2cccc(C)n2)(C(F)(F)F)C(=O)N1 (stereo not drawn) | 4.25
56 | COC(=O)c1ccc2nc(NC(=O)CSCC(=O)OCC(=O)c3ccccc3)sc2c1 | 3.62
57 | COc1ccc(C(=S)N2CCN(c3ccccc3Cl)CC2)cc1OC | 2.51
58 | CCn1c(SCC(=O)Nc2ccc(Br)cn2)nnc1C1CC1 | -0.833
59 | CCc1cc(C(c2ccc(OC)c(OC)c2)N2CCOCC2)c(NC(=O)c2ccccc2)s1 (stereo not drawn) | 7.95
60 | COc1ccc(-c2cc(C(=O)Nc3ccccc3N3CCOCC3)c3ccccc3n2)cc1OC | 8.56
61 | CCOc1cc(C(=O)N2CCCC2)cc(OCC)c1OCC | 11.3
62 | C=CCN=C1N[C@@H](c2ccccc2)C(C(=O)OC)=C(C)N1CCOC | -1.41
63 | O=C(CSc1nc(O)cc(=O)[nH]1)Nc1ccc2c(c1)CCC2 | 18.4
64 | CCOc1ccccc1NC(=O)CN1CCCCCC1.Cl | 22.3
65 | COc1ccc(N(C(=O)c2ccccc2C)S(=O)(=O)c2cccs2)cc1 | 11.2
66 | O=C(NN1CCOCC1)c1ccc(Cl)c(Cl)c1 | -13.9
67 | CC(C(=O)OCC(=O)c1cccc([N+](=O)[O-])c1)N1C(=O)C2C3C=CC(C3)C2C1=O (stereo not drawn) | 9.72
68 | CCCn1c(C)nc2c(c1=O)c1nc3ccccc3nc1n2CCC1=CCCCC1 | 14.4
69 | O=C(O)c1ccc2cccnc2c1O | 11.5

Row | Structure (SMILES) | hERG current change (%, negative = inhibition) at 1uM [%]
70 | COc1ccc(Cl)cc1-n1c(C)cc(C(=O)OCC(=O)N2CC(=O)Nc3ccccc32)c1C | 4.99
71 | COC(=O)c1cc2ccccc2c(-c2c(O)ccc3ccccc23)c1O | -2.98
72 | CC(=O)NC(Cc1c[nH]c2ccccc12)C(=O)NCCc1ccccn1 (stereo not drawn) | 17.5
73 | Cn1c(OCc2ccc3c(c2)OCO3)nc2c1c(=O)n(Cc1cccc(Cl)c1)c(=O)n2C | 8.06
74 | CC(=O)c1ccc(OCC(=O)N2CCCC(N3CCN(c4ccccc4C)CC3)C2)cc1 (stereo not drawn) | -42.7
75 | CCOc1ccc(-c2nn(-c3ccccc3)cc2/C=C2\SC(=S)N(Cc3ccco3)C2=O)cc1 | 11.1
76 | CCOC(=O)c1c(C)[nH]c(C)c1S(=O)(=O)NCCN1CCN(c2cc(Cl)ccc2C)CC1 | 17.8
77 | Cc1ccc(CONC(=O)c2cccc(C)c2)cc1 | -4.64
78 | COC(=O)c1ccccc1S(=O)(=O)N1CCC(C(=O)OC(C)C(=O)NC(N)=O)CC1 (stereo not drawn) | 15.8
79 | Cn1c(C(=O)NC2CC2)cc(=O)n(C)c1=O | 7.36
80 | O=C1CN(C(=O)c2cc3ccccc3o2)c2ccccc2N1 | 1.56
81 | COc1ccccc1NC(=O)C(Cc1ccc(Cl)cc1)c1nn[nH]n1 (stereo not drawn) | 3.47
82 | COc1ccc(NC(=S)NCc2ccccc2Cl)c(OC)c1 | 9.83
83 | CNS(=O)(=O)c1ccc(C(=O)NCC(=O)NCCc2ccc3c(c2)OCCO3)cc1 | 9.8
84 | O=C(COc1ccccc1)NCC(=O)N/N=C/C=C/c1ccccc1 | 8.13
85 | Cc1cc(OCC(=O)NCCCN2CCCC2=O)c2c(C)cc(=O)oc2c1 | 19
86 | COC(=O)/C=c1\sc2ncnn2c1=O | 8.57
87 | O=C(NC(=S)Nc1cccc2[nH]ncc12)c1ccccc1 | 12.8
88 | O=C(CC(=O)N/N=C/c1c(Cl)cccc1Cl)NCc1cccnc1 | 15.3
89 | COc1ccccc1/C=C/C=N/n1c(C)nnc1C | 5.85
90 | CCc1noc(C)c1C(=O)NNC(=O)c1ccc(F)cc1 | 16.7

Source: article PMC4336329 (PLoS ONE, 2015)
